From PubChem BioAssay (NCI) come the findings set out here.

The TGI is the concentration at which net growth stops. By GI50 is commonly meant the concentration that inhibits growth by half.

Each structure is given as a SMILES string. Values joined by “and” are separate entries in the source; they are usually repeats but may differ in a detail not shown here. Equal values may be shown once.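 Five compound concentrations were applied to cells in 96-well plates for 48 hours; endpoints were derived by simple linear interpolation of the resulting dose-response curve. GI50 = concentration required for 50% inhibition of growth. At the TGI there is no net growth.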

This assay has as its system NCI-H322M lung. The experiment in a line: DTP human tumour cell line panel, 48 h.

Compound `c1cncc(CNCc2cccnc2)c1` registered a TGI of over 100 µM.
Consider `O=C1CCC(N2C(=O)c3ccccc3C2=O)C(=O)N1` (stereo unspecified), for which the TGI was over 100 µM.
`Cc1ccc(N=Nc2c(O)ccc3ccccc23)cc1` returned a TGI of over 100 µM.
As for `O=C(Oc1ccc(CO[N+](=O)[O-])cc1)c1ccccc1`, the GI50 is 0.437 µM and the TGI is 1.49 µM.
Compound `COc1cc(C)c(C2NC(=O)c3ccccc3N2)cc1C` (stereo unspecified) displayed a TGI of over 100 µM.
On to `O=C([O][Sn]([O]C(=O)c1ccccn1)([c]1ccccc1)[c]1ccccc1)c1ccccn1`, for which the GI50 was 14.7 µM and the TGI came to 28.6 µM.
For `OCc1ccc(-c2cscc2-c2ccc(CO)o2)o1`, the GI50 was 11.3 µM and the TGI stood at 67.2 µM.
As to `COc1ccc(C(=O)CC(c2ccccc2)[C@H]2C(c3ccc(OC)cc3)=Nc3c(nc(SC)n(C)c3=O)NC2c2ccccc2)cc1` (stereo partly specified), the TGI was over 100 µM.
Turning to `O=C(Nc1ccc(-c2nc(-c3cccc(OCCN4CCOCC4)c3)c(-c3ccnc(Br)c3)[nH]2)cc1)c1ccccc1`, the GI50 was 3.37 µM and the concentration for total growth inhibition (TGI) was over 100 µM.
The compound `CC(C)OP(=O)(OC(C)C)/C(N)=N/Nc1ccc([N+](=O)[O-])cc1` yielded a TGI of over 100 µM.
Regarding `O=C1OC[C@H]2[C@@H]1[C@H]1O[C@@H]2C2=C(CCC2)C1=O`, the TGI is over 100 µM.
In the case of `CC1(C)CC2(CC(C)(C)N1O)NC(=O)OC2=O`, the TGI is over 100 µM.
As to `Cc1ccc(S(=O)(=O)c2nc(-c3ccccc3)oc2S(C)=O)cc1` (stereo unspecified), the GI50 is 7.5 µM and the TGI worked out at 20.5 µM.
In the case of `O=c1[nH]n(Cc2ccccc2)c2ccc([N+](=O)[O-])cc12`, the TGI is over 100 µM.
`COc1ccc2cc(CNCCCCCCNCc3ccc4cc(OC)ccc4c3)ccc2c1` came in with a TGI of 1.97 µM.
As to `Cc1nc2ccc(NC(=O)CCNC(=O)CCCc3ccc(CC(C(=O)O)C(=O)O)cc3)cc2s1`, the GI50 was over 100 µM and the TGI was over 100 µM.
In the case of `O=C1CC(=O)n2cnc3cccc(c32)N1`, the TGI was over 100 µM.
With `O=c1[nH]c2ccccc2n1CCCN1CCC(n2c(=O)[nH]c3cc(Cl)ccc32)CC1`, the concentration for total growth inhibition (TGI) came out at 40 µM.
Still for that read-out and setting: with `COc1cc2cc(C(=O)N3CC(COS(C)(=O)=O)c4ccc(O)cc43)[nH]c2c(OC)c1OC` (stereo unspecified) the figure was 0.118 µM.
On to `CN(C)c1nc2ccccc2c2c1c1c(n2Cc2ccccc2)-c2ccccc2C1=O`, for which the GI50 was over 100 µM and the TGI is over 100 µM.
With `O=C1NC(=O)C(C(CC(=O)c2ccc(Cl)cc2)c2ccc(Cl)cc2)C(=O)N1` (stereo unspecified), the concentration for total growth inhibition (TGI) is over 100 µM.
In the case of `Cc1cc(OC(=O)NCn2cc(-c3ccccc3)nn2)ccc1Cl`, the TGI is over 100 µM.
As for `O=C(Cc1ccc(Cl)c(Cl)c1)NCC1(N2CCCCC2)CCCCC1`, the TGI is over 100 µM.
In turn, `NCc1cccc(O)c1O` came in with a TGI of over 100 µM.
With `O=C(NCCc1ccccn1)OCc1nc2nc(Cl)nc(N3CCOCC3)c2[nH]1`, the GI50 is 5.68 µM and the concentration for total growth inhibition (TGI) is 18.7 µM.
Regarding `C=CCO/N=C(\OC(=O)c1ccc([N+](=O)[O-])cc1)c1ccccc1`, the TGI was over 100 µM.
In turn, `c1ccc2c(c1)SCCCSCCSCCCS2` gave a TGI of over 100 µM.
On the same count and under the same terms, with `Cc1ccc(S(=O)(=O)c2ccccc2[N+](=O)[O-])cc1` the figure was over 100 µM; with `Cc1ccccc1-c1nc2c(C(=O)NCCN(C)C)cccc2[nH]1`, over 100 µM.
Turning to `COc1cc(NC(=O)CCSc2nc3ccc(C)cc3c(=O)n2Cc2ccccc2)cc(OC)c1OC`, the GI50 is 70.5 µM and the TGI was over 100 µM.
As for `O=C(O)CCNCCCCNCCC(=O)O`, the TGI is over 100 µM.
`COc1ccc(CCc2cc(OC)cc(OC)c2)cc1` gave a TGI of over 100 µM.
On to `CC(C)(C)n1c(=O)[nH]c(=O)n1C(C)(C)C`, for which the TGI is over 100 µM.
Turning to `CC(C)CCCC(C)[C@H]1CCC2[C@@H]3CCC4Nc5c(cnn5-c5ccccc5)C[C@]4(C)C3CC[C@@]21C` (stereo partly specified), the TGI was over 100 µM.
Same read-out and setting: with `O=C(O)c1ccccc1N=Cc1ccc(N(CCCl)CCCl)cc1` the figure was over 100 µM; with `COC(=O)c1c2c(cc3c1CC1(Cc4cc5c(c(C(C)=O)c4C1)CCC5)C3)CCC2` (stereo unspecified), over 100 µM.
`CC1CCSC(N(C(=O)N(C)c2ccccc2)c2ccccc2)=N1` (stereo unspecified) had a TGI of over 100 µM.
In turn, `C=CCC1=C(C)C[C@@H]2CCC(=O)C=C12` had a TGI of over 100 µM.
The same measure, in the same setting: the figure for `O=C(Nc1ccccc1C(=O)NCc1ccccc1)/C(=C/c1ccccc1)NC(=O)c1ccccc1` is over 100 µM; for `CC(C)C(C/C=C1\CC(CO)(COC(=O)C2CCCCC2)OC1=O)C(C)C` (stereo unspecified) it is 36.8 µM.
Turning to `CC1=Cc2ccc(C)cc2C(=O)C1=O`, the total growth inhibition concentration (TGI) was 37.4 µM.
Regarding `Cc1nn2c(/C=C3/C(=O)Nc4cc(Cl)ccc43)c(-c3ccccc3)nc2s1`, the GI50 was 3.84 µM and the concentration for total growth inhibition (TGI) is over 100 µM.
The compound `COc1cc(C2C(Cl)C(=O)N2c2c(C)n(C)n(-c3ccccc3)c2=O)ccc1O` (stereo unspecified) showed a TGI of over 100 µM.
On the same count and under the same terms, the figure for `CN(C)CCn1c(CO)nc2c1c(=O)n(C)c(=O)n2C` is over 100 µM.
In the case of `Cn1cc(C2=C(c3cn(C)c4ccc(Cl)cc34)C(=O)NC2=O)c2ccccc21`, the GI50 is 6.61 µM and the TGI came out at 21.7 µM.
The compound `Cc1cc(=O)[nH]c(NN2C(Cl)C(=O)C2c2ccc([N+](=O)[O-])cc2)n1` (stereo unspecified) yielded a total growth inhibition concentration (TGI) of 25.1 µM.
On the same count and under the same terms, with `COc1cccc(N[C@@H]2c3cc4c(cc3C(c3cc(OC)c(O)c(OC)c3)[C@H]3C(=O)OCC32)OCO4)c1` (stereo partly specified) the figure was over 100 µM; with `COC(=O)C1C(O)C(C)C(O)C(C)C=C(C)C2=C3C(=C(C)C(=O)c4c(O)c(c(C)c(OC(C)=O)c43)NC(=O)C(C)=C/C=C\C(C)C(O)C(C)C1O)OCO2` (stereo unspecified), over 100 µM.
Same read-out and setting: with `CC1(C)CC(=O)C2(CC(CSc3ccccc3)C(CS(=O)(=O)c3ccccc3)C2)C(=O)C1` (stereo unspecified) the figure was over 100 µM; with `COc1ccc(-c2oc3cc(O)cc(O)c3c(=O)c2OC)cc1`, over 100 µM.
`CC(=O)O[C@]1(C)OC(=O)[C@@H](CC(C)C)N1[N+](=O)[O-]`: the TGI was over 100 µM.
On to `O=C1CC(c2[nH]nc3ccccc23)C(=O)N1c1ccccc1` (stereo unspecified), for which the TGI is over 100 µM.
For `CCN(c1cc(-c2ccc(CN3CCOCC3)cc2)cc(C(=O)NCc2c(C)cc(C)[nH]c2=O)c1C)C1CCOCC1`, the GI50 was 29.6 µM and the TGI is over 78.1 µM.
Regarding `O=c1c(-c2ccccc2)c(SCCO)n(-c2ccccc2)c(=S)n1-c1ccccc1`, the TGI was over 100 µM.
On the same count and under the same terms, with `Cc1nn(-c2ccccc2)c(C)c1/C=N/N=C1\S/C(=C\c2ccc(Cl)cc2)C(=O)N1c1ccccc1` the figure was over 100 µM.
As to `CC(C)=CCC(OC(=O)C=C(C)C)C1=CC(=O)c2c(O)ccc(O)c2C1=O` (stereo unspecified), the GI50 is 18.6 µM; the TGI was 36.3 µM and 8.14 µM.
`CC(=O)NC1C(OCc2ccccc2)OC(CO)C(O)C1OC(C)C(=O)NC(C(=O)NC(CCC(=O)NCCCCNc1c2ccccc2nc2cccc([N+](=O)[O-])c12)C(N)=O)C(C)C` (stereo unspecified) showed a TGI of 28.8 µM.
In the case of `C=C1CCC2(C#N)[C@H]3[C@H](CC[C@@H]2C)[C@@H](C)C[C@@H](CC(C)(C)NC(=O)CN2CCC2=O)[C@H]13` (stereo partly specified), the GI50 is 12.2 µM and the total growth inhibition concentration (TGI) was found to be 42.2 µM.
As to `O=C1/C(=C/c2ccccc2)CN(C(=O)CCN2CCCC2)C/C1=C\c1ccccc1`, the total growth inhibition concentration (TGI) turned out to be 7.02 µM.
Compound `O=C(O)COc1cc(-c2ccccc2)nc2cc(F)ccc12` showed a TGI of over 100 µM.
Regarding `CC(C)Cc1ccc(C(C)CC2=CCC(CN(C)C)C2=O)cc1` (stereo unspecified), the concentration for total growth inhibition (TGI) is 31.4 µM.
Consider `COc1cccc(C=O)c1[O-].[O]=[U](=[O])([OH2+])[OH2+]`, for which the TGI is over 100 µM.
Regarding `COc1cccc(N=N/C(=N\NC(=O)c2ccc(C)cc2)c2ccc(N(CCC#N)CCC#N)cc2C)c1`, the TGI is over 100 µM.
`C#Cc1c(C)c(/C=C/C(C)=C/C(=O)OC)n(C)c1C`: the TGI was over 100 µM.
In the case of `C#Cc1nc2ccccc2c(=O)[nH]1`, the GI50 is 3.22 µM and the TGI was 11.1 µM.
As to `C=C1C(=O)OC2CC(C)C3CC(O)OC(OCC)C3(C)CC12` (stereo unspecified), the TGI was over 67.7 µM.
As for `COc1cc(C2C3=C(COC3=O)Oc3cc4c(cc32)OCO4)cc(OC)c1O` (stereo unspecified), the TGI turned out to be 49.5 µM.
The compound `CN(C)CCCNc1ccc2nnn3c4ccc(O)cc4c(=O)c1c23` had a TGI of 18.2 µM.
In turn, `CN=C(/N=c1\ssc(=NC)n1C)N(C)C` had a TGI of over 100 µM.
On to `C1=C2CCCC3=Cc4ccccc4OC23Oc2ccccc21`, for which the GI50 is 3.92 µM and the TGI is over 100 µM.
`CC(=O)OCC(=O)[C@@]12OC(C)(C)O[C@@H]1C[C@H]1[C@@H]3CC(C=O)=C4C=C(OCCCl)CC[C@]4(C)[C@@]3(F)[C@@H](O)C[C@@]12C` showed a TGI of 96.4 µM.
`O=C1c2c(O)cccc2-c2nn(CCNCCO)c3ccc(NCCNCCO)c1c23`: the TGI amounted to 5.77 µM.
As for `COc1ncnc(S(=O)(=O)c2ccc(N=C3C(=O)N(CN4CCN(c5cc6c(cc5F)c(=O)c(C(=O)O)cn6C5CC5)CC4)c4ccc(Cl)cc43)cc2)c1OC`, the GI50 was 11 µM and the total growth inhibition concentration (TGI) was 36.8 µM.
On to `Cc1nc2c(n1C)C(=O)c1ccccc1C2=O`, for which the GI50 was 33.8 µM and the TGI is over 100 µM.
Regarding `C[C@]12CC[C@H](O)CC1=CC[C@@H]1C2CC[C@]2(C)Nc3c(cnn3-c3ccccc3)CC12` (stereo partly specified), the concentration for total growth inhibition (TGI) was 9.61 µM.
Regarding `CC(C)(C)OC(=O)NCCCn1c2c(c3ccccc3c1=O)C(=O)c1ccccc1-2`, the GI50 is 76.9 µM and the TGI was over 100 µM.
As for `CCCCCCCCNCCC[C@@H](C)[C@H]1CC[C@H]2[C@@H]3[C@H](OCCCN)C[C@H]4C[C@H](OCCCN)CC[C@]4(C)[C@H]3C[C@H](OCCCN)[C@]12C`, the GI50 was 2.62 µM and the TGI amounted to 14.1 µM.
As for `Cn1c(=O)oc2nc(-c3ccccc3)cc(C(F)(F)F)c21`, the TGI was over 100 µM.
Take `Cc1nnc2n1N=C(c1ccc(Cl)cc1Cl)/C(=C/c1ccc(-c3ccc([N+](=O)[O-])cc3Cl)o1)S2`: the GI50 was over 100 µM and the TGI is over 100 µM.
Compound `CN1CCc2c1nc(-c1ccc(Cl)cc1)c1c2N(C)CC1` gave a TGI of 48.4 µM.
For `O=C(c1ccccc1)c1c(NCC(O)CN2CCOCC2)n(Cc2ccccc2)c(=O)n(Cc2ccccc2)c1=O` (stereo unspecified), the GI50 was 46.9 µM and the TGI was over 100 µM.
With `C=CC[n+]1c2ccccc2n2cc([N+](=O)[O-])ccc21`, the TGI is over 100 µM.
The compound `CC(C)=CCNc1nc(Cl)nc2nc[nH]c12` had a TGI of 88.2 µM.
As to `COC(=O)CC(NC(=O)OCc1ccccc1)C(C(=O)OCc1ccccc1)C(C)(OC)OC` (stereo unspecified), the TGI was over 100 µM.
